About 25,000 (6.9%) of roughly 360,000 compounds were called active. Inconclusive results, whose numbers are uncertain, are shown with a selection of clear calls. Calls follow the shape of the dose curve; as a rule, active = well fitted inhibition curve with a large enough effect; inconclusive = small, poorly fitted or top-dose-only effect; inactive = flat fitted curve, though single readings scatter. Potencies of inconclusive entries are doubtful fits and often do not repeat.
Target: Luciferin 4-monooxygenase (Photinus pyralis) (UniProt P08659)
Chain of UniProt P08659 (P08659 whole entry, looked up): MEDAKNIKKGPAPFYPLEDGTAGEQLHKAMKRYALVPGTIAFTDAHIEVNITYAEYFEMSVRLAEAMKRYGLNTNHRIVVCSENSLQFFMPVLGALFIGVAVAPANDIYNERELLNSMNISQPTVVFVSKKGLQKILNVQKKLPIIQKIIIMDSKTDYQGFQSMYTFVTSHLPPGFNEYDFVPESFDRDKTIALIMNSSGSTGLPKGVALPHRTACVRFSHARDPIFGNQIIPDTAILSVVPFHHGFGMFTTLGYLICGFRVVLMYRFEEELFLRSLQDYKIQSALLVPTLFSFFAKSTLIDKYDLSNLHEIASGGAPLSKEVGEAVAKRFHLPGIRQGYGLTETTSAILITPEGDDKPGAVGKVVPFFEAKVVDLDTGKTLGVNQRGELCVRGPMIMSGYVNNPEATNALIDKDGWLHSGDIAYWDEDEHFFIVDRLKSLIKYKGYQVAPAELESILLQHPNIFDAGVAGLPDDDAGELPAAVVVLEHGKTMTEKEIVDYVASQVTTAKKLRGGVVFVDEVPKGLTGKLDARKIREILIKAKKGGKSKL
Assay: qHTS profiling assay for firefly luciferase inhibitor/activator using purifed enzyme and Km concentrations of substrates (counterscreen for miR-21 project); also: nearly all actives have a fitted effect of over 55% in size;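 as to activity change, negative = inhibition: plate controls were vehicle for no effect and reference inhibitor for full effect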
Settings: purified FLuc, luminescence inhibition; series mostly up to 57.5 µM; activity change, negative = inhibition: at the top concentration
Procedure, shortened: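 Purified P. pyralis luciferase (10nM final) with 10uM D-luciferin and 10uM ATP (Km levels) in 50mM Tris acetate pH 7.5, 10mM Mg acetate, 0.01% Tween-20, 0.05% BSA; qHTS 6-point titration, ~60 µM downward; luminescence read.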
Potency is read from the fitted curve at half-maximal effect; tags tell the direction and shape of the fitted curve.

Which “activity change, negative = inhibition” value does the source give for `CCOC(=O)c1ccc(S(=O)(=O)N2CCC(C(=O)NCC3CCCCC3)CC2)cc1` here?
Its value is inactive: 1.08%.

With `Nc1nc(CSC(=S)N2CCOCC2)nc(Nc2ccccc2)n1` as the compound, how does the Potency read?
Its Potency is active: 13.5 µM.

Which Potency does the source give for `COc1ccc(/C(N)=N/OC(=O)c2ccc(C)c([N+](=O)[O-])c2)cc1OC` here?
The Potency was inconclusive: 10.7 µM [inhibitor, partial curve].

For `Cc1nc(SCc2ccccc2)c([N+](=O)[O-])[nH]1`, which Potency is on record?
The Potency was inconclusive: 33.8 µM [inhibitor, single point].

How did the Potency turn out when `CN(C)c1ccc(-c2nnc(-c3cccnc3)o2)cc1` was run?
Its Potency is active: 9.53 µM.

Which Potency does the source give for `CCCOC(=O)c1c(NC(=O)CCC(=O)O)sc2c1CCCCC2` here?
The Potency was inconclusive: 26.9 µM [inhibitor, single point].

How did the Potency turn out when `COc1ccc2cc3c(N)c(C(=O)N4CCCC4)sc3nc2c1` was run?
Its Potency is active: 2.69 µM.

With `CC(OC(=O)CCC(=O)c1ccc(Cl)s1)C(=O)NC1(C#N)CCCCC1` (stereo unspecified) as the compound, how does the Potency read?
Its Potency is inconclusive: 23.9 µM [inhibitor, single point].

Which Potency does the source give for `C#CCN(C)CCCOc1ccc(Cl)cc1Cl` here?
The Potency was active: 13.5 µM.

`CN(C)S(=O)(=O)c1cccc(C(=O)NCC2CCCCC2)c1` was tested. Which “activity change, negative = inhibition” value did it give?
Its value is inactive: -2.99%.

How did the Potency turn out when `C=CCn1c(-c2ccc(Cl)cc2)c[nH]c1=S` was run?
Its Potency is inconclusive: 37.9 µM [inhibitor, single point].

With `CC(C)(C)S(=O)(=O)/C(C#N)=N/Nc1ccc(Cl)cc1` as the compound, how does the Potency read?
The Potency was inconclusive: 37.9 µM [inhibitor, partial curve, poor fit].

For `O=C(COC(=O)CNS(=O)(=O)c1ccc(F)c(F)c1F)NCCc1ccccc1`, which Potency is on record?
The Potency was active: 5.36 µM.

How did the Potency turn out when `CCOc1ccc2nc(SCC(=O)c3ccc(Cl)s3)sc2c1` was run?
The Potency was inconclusive: 9.53 µM [inhibitor, partial curve, poor fit].

For `CCOC(=O)/C(C#N)=C/c1ccc(N2CCN(Cc3ccccc3)CC2)cc1`, which Potency is on record?
Its Potency is inconclusive: 21.3 µM [inhibitor, single point].

With `CCCCCCc1cc2cc(-c3nnc(-c4ccccc4)o3)c(=O)oc2cc1O` as the compound, how does the Potency read?
The Potency was inconclusive: 21.3 µM [inhibitor, partial curve, poor fit].

How did the Potency turn out when `CSc1ccc(/C=N/NC(=O)c2ccc(O)cc2)cc1` was run?
Its Potency is active: 4.78 µM.

For `Cc1cccc(NC(=O)Cn2c(=O)n(Cc3nc(-c4ccccc4)no3)c(=O)c3ccccc32)c1`, which “activity change, negative = inhibition” value is on record?
The value was inactive: -10.2%.

Which Potency does the source give for `Cc1cc(C)c(OCC(=O)Nc2nnc(-c3ccco3)o2)c(C)c1` here?
Its Potency is inconclusive: 30.1 µM [inhibitor, single point].

`O=C(/C=C/c1ccco1)Nc1ccccn1` was tested. Which Potency did it give?
Its Potency is active: 6.75 µM.

`CC1CCCN(C(=O)c2ccc(CSc3nc4ccncc4n3Cc3ccccc3)cc2)C1` (stereo unspecified) was tested. Which Potency did it give?
Its Potency is inconclusive: 26.9 µM [inhibitor, partial curve].

Reference: PubChem BioAssay AID588342 (National Center for Advancing Translational Sciences (NCATS), 2011)
